Source: PMC10726135
This is one part of the list. At the low end of the ranking, values are background and their order means little. The protein was read in a cell extract, so binding may be indirect.

biological target: T1, HNF4alpha2 (COS-7 nuclear extract) (UniProt P41235); test: protein-binding microarray; details: COS-7 nuclear extract on double-stranded Agilent 4x180k PBM; binding buffer, salt, pH and temperature not given; high values mean tight binding; double strand, one strand shown; sequences stand for … in …GCCTAGGGAGATTAGAGTATCGGTCGA
T1 sequence: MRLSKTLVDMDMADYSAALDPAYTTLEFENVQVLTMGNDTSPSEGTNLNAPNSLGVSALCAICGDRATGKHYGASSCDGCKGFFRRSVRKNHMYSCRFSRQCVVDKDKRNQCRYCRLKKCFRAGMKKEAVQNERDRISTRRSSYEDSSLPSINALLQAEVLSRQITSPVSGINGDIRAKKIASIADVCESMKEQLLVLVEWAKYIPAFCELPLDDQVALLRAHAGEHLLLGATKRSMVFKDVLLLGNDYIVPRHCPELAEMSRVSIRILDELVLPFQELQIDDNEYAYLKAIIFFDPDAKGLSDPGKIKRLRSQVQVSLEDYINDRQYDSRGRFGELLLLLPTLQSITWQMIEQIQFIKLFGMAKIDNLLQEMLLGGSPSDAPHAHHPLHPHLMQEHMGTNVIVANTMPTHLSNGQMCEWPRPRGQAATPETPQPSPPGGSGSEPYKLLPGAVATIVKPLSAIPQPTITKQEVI

| Sequence | binding signal (log2 normalized intensity) |
| --- | --- |
| CTGGGGACCCGTCGCTGCTGCACACTTCCG | -1.19 |
| CCTTTGGACTGTCCTTTGCTAGATTCTTTC | 2.01 |
| GCACCTGTTTCTGGAGAATGCTGTCCTGCC | -1.07 |
| GCCGTCCTCAGTGAATCACAGCAGCTTCAA | -1.06 |
| CCATTAAATCTTCCCTCCTGTGAACTCGCG | 1.22 |
| ACTCCTACCACCAAAGAAAAAAGCCAATCT | -0.959 |
| CTTAGCAGTGGGAGACAGGCATTAACCCTT | 1.44 |
| GGAACAGTCCAGAGTCTGACAGAACTAAGC | -0.851 |
| CAGTTTCCAGGGAGGAGAGAAGGGCTGAAG | -0.867 |
| CCAGGAGCAGAAAGGAGGCAGAGACTGCCC | -1.09 |
| ACTGCTTACCCTGCAGTGTGACCTTTGCCT | 7.83 |
| AGTAGGATTTCTAGTTAATATCTAAGATGT | 1.01 |
| ACATGCTGTCTAGGCCAGAGTTCACTTTCC | 2.11 |
| GAGGAATGCTGGTAAACACTGAGCTTTCAT | -0.989 |
| TCCTCTCTCCCACAAGGGCAGCCCTGTTTA | -0.0809 |
| AGACAAAAGTCCGGAATTTCCTCCTGGCAG | -1.13 |
| TAGCCCTGAACAAACAGCTTCCAGAATAGC | -1.25 |
| GAGCCACTTCACTGGTGTGATCTTTTTTCT | 0.757 |
| GACTGGAAGTTGCCCGAGCTGCCCTTTATC | 2.47 |
| AAATAGCTCAAGCCTGTTCCGACCTTAGTA | 1.41 |
| CGGACAGGCATTAGCAATGCGAGAGTACAC | -0.0112 |
| CTGCCTAGTTTTGTAACTTAAAGATCATGT | 1.81 |
| GCATCTGGGGGCTTGTCAGACAAGTTGCAG | -1.35 |
| CTTGCCTCTGTGCTCCCAGTTCCCTCATTA | 1.26 |

| Sequence | binding signal (log2 normalized intensity) |
| --- | --- |
| CTCCGGGTAAAGGTGAAGGCTGACCACGGG | -1.15 |
| ATATGTTCGGGAGACATGTGGCCTTTGGTA | 3.02 |
| CCTCTTTCAAGCCTGAACAAACATGAGGGA | -0.186 |
| TGCTGACCTTTGTTCACATTTGTGCTCAGC | 3.43 |
| ACATGCCTATGACCGAGGGTTAAGCTCATG | -0.22 |
| TTGGACCACAGAGTGACCTGGTATTGCAAG | 1.66 |
| GTAAGATAAGGTGAACATACGTGGCTACCT | -1.11 |
| AGAACCTGCCCATGACCTTTGGACTGTGAC | 9.54 |
| CAATGCCACAGAAAAGGCAGCAGCTTGGAA | -1.17 |
| AGCAGAAAGGAGGCAGAGACTGCCCTGAGC | -1.27 |
| GGAAATTACCCTCTAATGGTATTCACTTTA | 0.723 |
| ATGGACTTTGAAGGAGATTCCTGTGTCAGC | 0.984 |
| TGGAGATAACAGTGTAAGGACATTGCCCCC | 5.41 |
| TTTGCAATCCTCCACTCTCCAAAATAGGGT | 0.728 |
| ACACTTGTACATACTTTTGGGGTATGTGTG | 2.3 |
| TGAACTTTGCCTTAGGCCATTGTCCTTTGG | 2.85 |
| CAGCAGCTATCAGTGGTCCGAACTACAGGG | -1.06 |
| GCAGAGCTATGGAATTTTGGCCTTTTTGTC | 1.41 |
| CTATTGGTTGTCAGACTGGTGTAGTGGGGA | 1.57 |
| ATGTTCTAACCATAGGAGGCTGGTCTAAGT | -0.115 |
| CTTTCATCTCGGCTGGCTACTGCTCCACCT | -1.15 |
| AGGTCATCCTGGGCTACCGATATGAGGCTT | -1.06 |
| ACAATTGGCCAAAGTTCAGTAAATCTTAGA | 2.24 |
| TCTGTTATCAGACACAAGAATTACTACTCT | -0.959 |

| Sequence | binding signal (log2 normalized intensity) |
| --- | --- |
| CCTCACCTCCAGGGAGGGGAGAGGGGGTTA | -1.07 |
| AAATATAGTTAAAGCCAGCTGTCTATCCTT | -1.15 |
| GTTCCACTGGTAACTAGGTTAATGTGAACA | 0.933 |
| AGGTAATAGGAAAAGGGAGTTTTCTGCTCT | -1.11 |
| ATCACTGAAGCGACCCCTCGAGGCAACCTT | 1.12 |
| CTAGTGATGTGGAAATCTGGACTCAGCAGA | 1.46 |
| CAGTAGGAGTTGGAACGGGGGCAAGGGTCA | 5.21 |
| GGCCATCTAGCTACAGGAGAACAAAGTTCA | 3.08 |
| GGAGTAGTCAAATTTGTCTAGCGCAAATGA | -1.18 |
| CAGGCGGAGCACACCAGGCCCTCGGCATCA | -1.08 |
| CCACATTCTGAGACTAAAGAGTACACAAAG | -0.922 |
| TACTCATGTGGTCCTAAGACTAACCTTTGA | 6.33 |
| TCCTGGGAGAGAAAAGCAAGATTGGGAGCT | -0.855 |
| GCAAATGTGTCTTTTTTAGTCAGCATAGTT | 1.83 |
| GCACTTTGCACCTGGGCTGGAAAGGCCACC | 2.49 |
| CCCATGCCCTTAGCCACTGCATGATAGGCC | -0.635 |
| ACAATGCCTTGTGTACTGAGCAGGGTCCAA | 3.13 |
| TCCTCTCCTACTTCTGTTTAAACTGATAAC | 1.39 |
| AGAGTGATCTTTGGGCCATATTGACTAAAC | 0.454 |
| CCTATGGTCTGTTCACTTGCCAAGCCTAGT | -1.02 |
| GATGGGGTCATGATAAGAGCAGAGACAGGC | -0.866 |
| TATTTACTGTCCTCAAACTGTCACCTGCCC | 0.664 |
| TGGAGAGAATTCCCATCCCACTAGGTGGCG | -1.19 |
| GCGAGAACTTACTTTTGGCCATCGCACGAG | -1.17 |

| Sequence | binding signal (log2 normalized intensity) |
| --- | --- |
| GGAGAAGGAAAAAAATAGGAGACTGTCTTA | -1.1 |
| AGCTCCGACTCAGTGGGGGGGGGGGGGGGG | -1.15 |
| TAAAGATTATGAACTAATTTGTCTTTTCTC | -0.653 |
| CATTGGACCCTCCCAGCCAAACCCCACTCC | 5.01 |
| GTCCAAGATGGCAATGTTCCTGCTCTGTCA | -0.996 |
| CCAAGGGTATGTTTGTGATATTGTGAAATA | 1.92 |
| ACATGAGGGACTGGGAAGAGAAGGTGAACT | -0.161 |
| CACCAATGATCAAAGGTTAGTCTTAGGACC | 3.04 |
| TCTGGTGTTCTCTTGGCCAACAACTAGGGC | -0.975 |
| TTAACTGGAGATAACACAACCCCTACTGTA | 1.18 |
| AGAGTGGCCTTTGGAATCAAACAGATGTAG | 2.01 |
| GAGGTGTCCTGTAAATAGTGTGTCAGGGAA | 1.15 |
| GTCGGGCGGACGGGGAACCCAGCAAACCTG | -1.24 |
| GCTGCCAGAGGGTGGCAGCAGCAGGCAGGG | 2.23 |
| AAGTGACCCTGGTCTTTGCCCTTTCCTAGA | 3.39 |
| GGGAGGAGTTCAGATCACAAAGGAGCTTGT | -0.858 |
| CCCTCTCCCACTCCCCTCCTCCAGATGGGC | 4.7 |
| ATGGGGGATGGGGCCTGGGAGATAAGGGTT | -1.12 |
| TCATCCGCATCTGAAGATAAGAGAAGTTGC | -0.83 |
| GGCAAGTGGTCATGTAGGTGTCTCAGGAAT | 1.41 |
| TCAGCCTTAACTCAAAAGGCCAAAGTCCAA | 8.38 |
